Measured values as given in PubChem BioAssay AID1508624 (National Center for Advancing Translational Sciences (NCATS), 2021).
Out of some 48,000 compounds screened, about 120 (0.25%) were called active. About 4% were inconclusive and are not listed. The call rests on the fitted dose curve; in most records, active means well fitted activation curve with a large enough effect; inconclusive means small, poorly fitted or top-dose-only effect, or another doubt; inactive means no such curve, though single readings can be large or run the other way. This is one part of the list.

test: Primary qHTS for Identification of Small Molecule Activators of Huntingtin-Antisense Promoter Activity; details: HEK293 HTT-AS promoter firefly luciferase reporter, 24 h; series mostly up to 57.5 µM; activity change, positive = activation: at the top concentration; further: nearly all actives have a fitted effect of over 55% in size
In short: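 Luminescence was read after Dual-Glo reagent and a 10 min room-temperature incubation. Values were normalized to vehicle (0% activity) and zero RLU (-100% activity). Reporter HEK293 cells had been exposed to compounds (up to 57.5 uM final) for 24 h.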

Activity change, positive = activation, inactive:
COCCNC(=O)c1ccc2c(=O)n(CCc3ccccc3)c(SCC(=O)CC(=O)OC)nc2c1 -7.97%, COc1cccc(-c2nc(S(=O)(=O)c3ccccc3)c(N3CCCCC3)o2)c1 7.29%, CCC(C)NC(=O)CSc1nc2cc3c(cc2c(=O)n1CCCC(=O)NCCc1ccc(OC)c(OC)c1)OCO3 (centres undefined) -13.8%, Cc1cccc(OCCSc2nc3ccccc3n2CC(=O)N2CCOCC2)c1 -17.7%, COc1ccccc1CNC(=O)c1ccc(CS(=O)(=O)c2c(Cl)cccc2Cl)o1 -18.1%, CC(=O)OCC1=C(C(=O)O)N2C(=O)[C@@H](NC(=O)CSc3ccncc3)[C@H]2SC1 2.59%, CCc1ccc(CNC(=O)c2c3c(nc4ccccc24)C(=O)N(C2CCCCC2)C3)cc1 -21.9%, CCCn1c(=O)c2sccc2n2c(CCCC(=O)N3CCN(c4ccccc4OC)CC3)nnc12 3.06%, CCOC(=O)c1c(C)[nH]c(C)c1S(=O)(=O)N(C)CC(=O)Nc1cc(Cl)ccc1C -15.5%, CCOC(=O)c1ccc(N2C(=O)c3[nH]nc(-c4ccc(C)cc4)c3C2c2ccc(O)c(OCC)c2)cc1 (centres undefined) -49.7%, COc1cc2c(=O)c(C(=O)c3ccc(C)c(C)c3)cn(Cc3ccccc3F)c2cc1OC -33.3%, Cc1ccccc1-c1nnn(CC(=O)Nc2sc3c(c2C#N)CCC(C(C)(C)C)C3)n1 (centres undefined) -12.8%, CCc1ccc(NC(=O)Cn2c(=O)n(CCCCC(=O)NCCc3ccc(Cl)cc3)c(=O)c3ccccc32)cc1 -2.33%, Cc1ccc2ncc(C(=O)Nc3ccc(OC(F)(F)F)cc3)c(=O)n2c1 0.686%, O=c1[nH]c2ccc(NCc3ccc(-c4ccc(Br)cc4)o3)cc2[nH]1 -20.4%, CCOC(=O)c1c(NC(=O)c2nc(S(C)(=O)=O)ncc2Cl)sc(C(C)=O)c1C 1.81%, O=C1CCCc2cc(S(=O)(=O)N3CCCC(C(=O)NCc4ccc(Cl)cc4)C3)ccc2N1 (centres undefined) -32.7%, COc1cc(OC)cc(-c2nc(-c3ccc4c(c3)[nH]c(=O)n4C)no2)c1 -11.5%, O=C(NCC(c1ccc(Cl)cc1)N1CCOCC1)c1ccccc1F (centres undefined) -2.89%, CCOc1ccc(-c2nnc(SCC(=O)Nc3cccc(OC)c3)nc2-c2ccc(OCC)cc2)cc1 -13%, CCS(=O)(=O)CCn1c([N+](=O)[O-])cnc1C -12.7%, COc1cccc(C2CC(=O)Nc3c2c(=O)[nH]c2nc4ccccc4n32)c1 (centres undefined) -9.62%, COc1ccc(C(=O)NCC(c2ccc3c(c2)OCO3)N2CCN(c3ccccc3F)CC2)cc1 (centres undefined) -37.9%, O=C1CCc2cc(OCCCCc3nnnn3C3CCCCC3)ccc2N1, O=C(COc1ccc([N+](=O)[O-])cc1)Nc1nc2c(s1)CCCC2 -8.24%, CCCn1c2ccccc2c2cnn(CC(=O)N3CCN(c4ccccc4)CC3)c(=O)c21 -10.6%, Cc1cccc(CSc2ncc(Cl)c(C(=O)Nc3nc4ccc(F)cc4s3)n2)c1 -16.3%, Cc1ccc2nc3c(cc(C#N)c(=O)n3-c3nnc(SCc4ccccc4)s3)c(=O)n2c1 15.8%, COc1cc(NC(=O)Cn2cc(C(=O)c3ccc(F)cc3)c(=O)c3ccc(C)nc32)cc(OC)c1 -36.9%, O=C(Cn1c(=O)nc(-c2ccccc2)c2cc(Cl)ccc21)Nc1ccc(F)c(Cl)c1 -14.4%, COc1cccc(CNC(=O)c2ccc(-n3c(C)cc4c3CCC(C)C4)cc2)c1 (centres undefined) 3.89%, CC(C)NC(=O)c1ccc(NC(=O)N2CCCCc3ccccc32)cc1 -22.7%, CCOc1cc(C#N)c(NC(=O)Cn2nnc(-c3ccc(C)cc3)n2)cc1OCC -17.5%, Cc1ccc(-c2cc(C(=O)NCc3ccccc3Cl)c3ccccc3n2)cc1C 15.3%, O=C(Nc1ccccc1C(F)(F)F)n1ncc2cc(Cl)ccc21 7.65%, COc1ccc2cc3c(N)nn(C(=O)c4ccc(OC)c(OC)c4)c3nc2c1 -8.9%, CCOC(=O)c1[nH]c2ccccc2c1NC(=O)c1ccc(Br)cc1 -14%, COc1cccc(CNC(=O)C2CCN(S(=O)(=O)c3ccc4c(c3)CCCN4C(C)=O)CC2)c1 -13.9%, Cc1ccc2c(c1)N(CCCC(=O)Nc1cccc(C(F)(F)F)c1)C(=O)CO2 -31.6%, CCCCOc1cc(C(=O)NCCN(CC)CC)c2ccccc2n1 -16.8%, CCOc1ccc(-c2nc3c(c(SCC(=O)N4CCCCC4)n2)Cc2cccc(OC)c2O3)cc1 -25.9%, CCCCN1C(=O)C(O)(CC(=O)c2ccc(C(C)(C)C)cc2)c2ccccc21 (centres undefined) -22.1%, COc1ccc(NC(=O)c2oc3ccccc3c2NC(=O)COc2ccc(C(C)C)cc2)c(OC)c1 -18.5%, O=C(Nc1ccccc1Cl)c1sc2cccc(Cl)c2c1Cl 12.7%, Cc1ccc(N(CC(=O)Nc2ccc(Cl)cc2)S(=O)(=O)c2cccc3nonc23)cc1 -1.36%, CCOc1cc(CNC(=O)CN2CCSc3ccccc32)cc(OCC)c1OCC -26.5%, COc1cccc(NC(=O)Cn2c(=O)n(Cc3ccccc3)c(=O)c3ccccc32)c1 -1.12%, CN1C(C(=O)Nc2ccc(OC(F)(F)F)cc2)=CC(c2cccs2)=NS1(=O)=O -28.4%, CCSc1nc2n(n1)C(c1ccc(C(=O)O)cc1)C(C(=O)Nc1ccccc1C)=C(C)N2 (centres undefined) 2.88%, COc1ccc(-c2nc3c(c(SCC(=O)N4CCCCC4)n2)Cc2cc(Cl)ccc2O3)cc1 -23.7%, CCC(C)SSc1ncc[nH]1 (centres undefined) -2.37%, CN(C)c1ccc(CNC(=O)Cn2c(=O)oc3cc(S(=O)(=O)N4CCCCCC4)ccc32)cc1 -32.8%, Cc1ccc(NC(=O)Cc2coc3ccc(C(C)C)cc23)cc1Cl -30.3%, CCCS(=O)(=O)c1nc(S(=O)(=O)c2ccc(C)cc2)c(NC)s1 -16.3%, COc1ccc(-n2c(=O)[nH]c3cc(C(=O)NCCc4ccccc4)ccc3c2=O)cc1OC -27.1%, Cc1ccc(-n2ncc(C(=O)N3CCCCC3)c2C2CCN(C(=O)OC(C)(C)C)CC2)c(C)c1 0%, CCOC(=O)c1c(NC(=O)c2ccc(OC)cc2)sc2c1CCCCC2 17.6% [at 11.5 µM, percent change from vehicle, -100% = no light], O=C(COc1ccccc1)Nc1ccc2nc(SCC(=O)N3CCOCC3)sc2c1 -8.57%, COc1ccc(-c2cc3c(C)nc(N)nc3n(C3CCC(OCCO)CC3)c2=O)cn1 (centres undefined) -28.7%
